These results are taken from PMC4336329 (PLoS ONE, 2015).

Molecules are shown by their SMILES. The whole screen tested about 310,000 compounds, of which about 2,200 (0.71%) showed an effect of 50% or more. The effect is printed as a negative number. The list shows a part of the results.

The assay deals with human ether-à-go-go-related gene (hERG) potassium channel (human, UniProt Q12809). In words: primary screen, population patch clamp on CHO cells stably expressing hERG.
Sequence of human ether-à-go-go-related gene (hERG) potassium channel (Q12809 whole entry, looked up): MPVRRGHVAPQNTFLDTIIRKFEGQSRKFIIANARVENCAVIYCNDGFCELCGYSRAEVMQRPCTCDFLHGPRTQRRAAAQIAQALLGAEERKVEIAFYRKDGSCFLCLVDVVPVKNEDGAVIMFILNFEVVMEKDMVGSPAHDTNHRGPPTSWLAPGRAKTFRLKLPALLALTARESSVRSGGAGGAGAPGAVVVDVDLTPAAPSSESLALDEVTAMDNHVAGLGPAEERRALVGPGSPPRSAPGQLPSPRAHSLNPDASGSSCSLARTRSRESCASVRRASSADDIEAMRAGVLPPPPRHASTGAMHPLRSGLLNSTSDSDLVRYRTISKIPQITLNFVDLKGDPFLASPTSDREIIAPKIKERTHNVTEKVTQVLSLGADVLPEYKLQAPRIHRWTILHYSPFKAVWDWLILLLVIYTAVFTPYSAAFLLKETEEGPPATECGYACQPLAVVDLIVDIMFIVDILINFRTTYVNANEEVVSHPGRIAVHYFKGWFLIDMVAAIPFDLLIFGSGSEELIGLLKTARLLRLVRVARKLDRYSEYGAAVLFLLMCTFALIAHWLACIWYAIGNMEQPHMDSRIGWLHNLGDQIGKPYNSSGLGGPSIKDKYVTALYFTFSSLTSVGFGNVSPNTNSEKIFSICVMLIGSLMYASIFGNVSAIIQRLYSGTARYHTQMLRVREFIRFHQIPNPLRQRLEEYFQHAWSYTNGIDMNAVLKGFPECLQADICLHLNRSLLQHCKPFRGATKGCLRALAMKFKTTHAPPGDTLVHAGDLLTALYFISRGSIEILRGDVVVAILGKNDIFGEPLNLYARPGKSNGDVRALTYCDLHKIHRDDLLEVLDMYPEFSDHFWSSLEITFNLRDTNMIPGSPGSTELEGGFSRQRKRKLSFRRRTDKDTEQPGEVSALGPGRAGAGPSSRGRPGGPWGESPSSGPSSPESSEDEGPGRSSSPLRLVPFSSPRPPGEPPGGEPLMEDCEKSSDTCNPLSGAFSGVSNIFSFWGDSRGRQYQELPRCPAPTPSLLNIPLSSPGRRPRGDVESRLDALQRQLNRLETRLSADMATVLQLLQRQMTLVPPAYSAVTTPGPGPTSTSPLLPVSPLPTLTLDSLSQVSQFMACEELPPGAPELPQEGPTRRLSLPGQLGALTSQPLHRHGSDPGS
For `COCCNC(=O)CN(c1ccc(C)cc1)S(=O)(=O)c1ccccc1`, the “hERG current change (%, negative = inhibition) at 1uM” value came out at 19.4%. On to `COc1ccc(C(=O)C2CCCN(C(=O)c3cc(C4CC4)[nH]n3)C2)c(C)c1` (centres unmarked), for which the “hERG current change (%, negative = inhibition) at 1uM” value was 37.1%. In the case of `CC(C)=CCc1cc([C@@H]2CC(=O)c3ccc(O)c(CC=C(C)C)c3O2)ccc1O` it was 10.1%; in that of `CCOc1ccc(OCC)c(NS(=O)(=O)c2cn(C)cn2)c1`, 20.4%; in that of `O=C1CS/C(=N/N=C/c2ccco2)N1Cc1ccc(F)cc1`, 11.2%. The same measure for `Cc1ccc(S(=O)(=O)Nc2ccc(Br)cc2C(NCC(=O)O)c2ccccc2)cc1` (centres unmarked): -0.402%; for `CCOC(=O)CNC(=O)CSc1nnc(NC(=O)c2ccc(C)cc2)s1`: 10.9%; for `COc1ccc(C(=O)CCS(=O)(=O)c2ccc(C)cc2)cc1`: 8.55%.

Take `CN(C)/C=N/c1c(C#N)cnn1-c1ccc(C(F)(F)F)cn1`: the “hERG current change (%, negative = inhibition) at 1uM” value is reported as 17.5%. In the case of `CCc1sc(C(=O)NC)cc1Br` it was 7.56%. With `COc1ccc(OC)c(CN2CCN(CCCc3ccccc3)C(CCO)C2)c1` (centres unmarked), the “hERG current change (%, negative = inhibition) at 1uM” value was -27.4%. Take `Cc1ccc(/C=C2/Sc3ccc(C(=O)N4CCN(C)CC4)cc3NC2=O)cc1`: the “hERG current change (%, negative = inhibition) at 1uM” value was 13.1%. The same measure for `O=C1c2ccccc2C(=O)N1Cc1cc(-c2ccccc2Cl)no1`: 8.86%.

Turning to `O=C(Nc1ccccc1-c1nnn(CC(=O)N2CCCc3ccccc32)n1)c1ccc(Cl)cc1`, the “hERG current change (%, negative = inhibition) at 1uM” value was found to be 6.59%. `COC(=O)c1ccc(Cl)c(NS(=O)(=O)c2ccc3c(c2)OCCO3)c1`: the “hERG current change (%, negative = inhibition) at 1uM” value is 7.06%. In the case of `CN(c1cccc(NC(=O)CN(c2cccc(Cl)c2)S(=O)(=O)c2ccccc2)c1)S(C)(=O)=O` it was 18%; in that of `O=C(NCc1ccco1)c1ccc(Oc2ccccc2)cc1`, 0.484%; in that of `Cc1c(NC(=S)NC(NC(=O)C(C)C)C(Cl)(Cl)Cl)c(=O)n(-c2ccccc2)n1C` (centres unmarked), 7.95%. The same measure for `CN(NC(=O)C(C)(C)C)c1nc(-c2ccccc2)nnc1C(F)(F)F`: 4.99%; for `CC(NC(=O)C(C)N1C(=O)c2cccc([N+](=O)[O-])c2C1=O)c1ccccc1` (centres unmarked): 14.9%.

For `COc1ccc(N(CC(O)CN2C(=O)NC(C)(C)C2=O)S(=O)(=O)c2ccccc2)cc1` (centres unmarked), the “hERG current change (%, negative = inhibition) at 1uM” value worked out at 0.639%.

In the case of `O=C(COc1ccccc1)Nc1nc(-c2ccc(S(=O)(=O)N3CCOCC3)cc2)cs1`, the “hERG current change (%, negative = inhibition) at 1uM” value was found to be 8.24%. The same measure for `O=C(Nc1nc2ccccc2n1CCOc1ccccc1)c1ccco1`: 4.26%; for `CCc1ccccc1S(=O)(=O)c1c(C)cc(C)nc1Cl`: 13.1%. In the case of `CCCn1ncc(CN2CCC(n3nccc3NC(=O)c3ccccc3OC)CC2)c1C` it was -73.2%; in that of `C=CCNc1ccc(N2C(=O)C3CCC(C)CC3C2=O)cc1[N+](=O)[O-]` (centres unmarked), 4.92%; in that of `Cc1ccc(NC(=S)N(CCN(C)C)C(C)c2ccco2)cc1Cl` (centres unmarked), 0.0693%.

Regarding `Cc1cccc(CSC2=NCCN2C(=O)c2ccco2)c1`, the “hERG current change (%, negative = inhibition) at 1uM” value is recorded as 11.2%. The same measure for `Cc1ccc(-c2c[n+](CC(=O)Nc3ccc(C)cc3C)c3n2CCC3)cc1.[Cl-]`: -1.1%; for `COc1ccc2nc3oc(C(=O)N4CCCCC4)cc3cc2c1`: 8.21%; for `N#Cc1cc(C(=O)c2cc(F)ccc2O)cn(-c2nccs2)c1=O`: 4.94%. In the case of `COC(=O)c1ccccc1NC(=O)C1CCN(S(C)(=O)=O)CC1` it was 10%; in that of `COc1ccc(N2CCN(C(=O)CN3C(=O)C4CC=CCC4C3=O)CC2)cc1` (centres unmarked), 15.7%; in that of `COc1ccccc1N1CCN(Cc2cccs2)CC1`, -1.28%. In the case of `Cc1ccc(SC(CC(=O)c2ccc(C(C)(C)C)cc2)C(=O)O)cc1` (centres unmarked), the “hERG current change (%, negative = inhibition) at 1uM” value turned out to be 11.1%. The same measure for `CC(C)c1ccc(N(CC(=O)NCc2ccco2)C(=O)CCC(=O)Nc2ccccn2)cc1`: 7.8%; for `CCCC(=O)NC(=S)Nc1cccc(Cl)c1N1CCCCC1`: 15.7%. In the case of `O=C(Nc1ccc(NC(=O)C2CC2)cc1)c1cccs1`, the “hERG current change (%, negative = inhibition) at 1uM” value is listed as 1.63%.

In the case of `Cc1ccccc1C(=O)N1CCC(C(=O)NN2C(=O)NC3(CCCCC3)C2=O)CC1`, the “hERG current change (%, negative = inhibition) at 1uM” value was found to be 11.8%.

In the case of `Cc1ccc(S(=O)(=O)N2CCN(C(=O)CN3CCOCC3)C2C(C)C)cc1` (centres unmarked), the “hERG current change (%, negative = inhibition) at 1uM” value is reported as -3.71%. As for `COC(=O)c1ccc(CN2C(=O)c3ccccc3S2(=O)=O)cc1`, the “hERG current change (%, negative = inhibition) at 1uM” value was -1.81%. Take `FC(F)(F)c1cnc(Oc2ccccc2-c2nnco2)c(Cl)c1`: the “hERG current change (%, negative = inhibition) at 1uM” value is 12%. Take `O=c1[nH]c2c(c(=O)n1C1CCCCC1)CCC2`: the “hERG current change (%, negative = inhibition) at 1uM” value was 10.6%. Consider `C[C@H](CCC(=O)O)[C@H]1CC[C@H]2[C@@H]3[C@H](O)C[C@@H]4C[C@H](O)CC[C@]4(C)[C@H]3CC[C@]12C`, for which the “hERG current change (%, negative = inhibition) at 1uM” value was 7.13%. As to `Cc1cccc(C(=O)Nc2nnc(S(=O)(=O)N(C)Cc3ccco3)s2)c1`, the “hERG current change (%, negative = inhibition) at 1uM” value was found to be 10.3%. As for `CN(CCc1ccccn1)c1ccc([N+](=O)[O-])cn1`, the “hERG current change (%, negative = inhibition) at 1uM” value came to 11.7%.

Turning to `CCOC(=O)CN1CC23C=CC(O2)C(C(=O)Nc2cc(OC)ccc2OC)C3C1=O` (centres unmarked), the “hERG current change (%, negative = inhibition) at 1uM” value came out at 0.194%. For `CCOc1ccc(CCNC(=O)CCC(=O)Nc2ccc3nc(N4CCN(C)CC4)cc(C)c3c2)cc1OCC`, the “hERG current change (%, negative = inhibition) at 1uM” value was determined as 15.5%. In the case of `O=C1[C@H]2CC3CCC2(O3)[C@@H]2OCCCN12` (some centres unmarked) it was 2.7%; in that of `CSc1ccccc1NC(=O)c1ccco1`, 5.93%. In the case of `O=C(OCc1nnc(-c2ccccc2)o1)c1ccc2c(c1)OCO2`, the “hERG current change (%, negative = inhibition) at 1uM” value worked out at 9.58%. With `NC(=O)C1CCN(C(=O)C2CCC(=O)N(Cc3ccc(Cl)cc3)C2)CC1` (centres unmarked), the “hERG current change (%, negative = inhibition) at 1uM” value is on record as 17.2%. The same measure for `OCCC1CN(C2CCC2)CCN1Cc1ccc(F)c(F)c1` (centres unmarked): 12.1%; for `NC(=S)C1COc2ccccc2O1` (centres unmarked): 12.9%; for `O=C(NCc1cccs1)c1ccc2ccccc2n1`: 6.52%. In the case of `COc1ccc(CNC(=O)C(c2ccccc2F)N(C(=O)c2csnn2)C2CC2)cc1` (centres unmarked) it was 7.44%.

With `CC1CCc2sc(C(=O)NCc3ccccn3)cc2C1` (centres unmarked), the “hERG current change (%, negative = inhibition) at 1uM” value was found to be 9.75%. As to `CCOC(=O)c1c[nH]c2c(Cl)c(Cl)ccc2c1=O`, the “hERG current change (%, negative = inhibition) at 1uM” value is 15.2%. The same measure for `COc1ccccc1N(C)S(=O)(=O)c1ccc(C(=O)N2CCCc3ccccc32)cc1`: 9.64%.

For the compound `Cc1cc2oc(=O)sc2cc1NS(=O)(=O)c1ccccc1`, the “hERG current change (%, negative = inhibition) at 1uM” value is given as 19%.

Turning to `Cc1cccc(Cn2cnc3c(nnn3Cc3ccc(Cl)cc3)c2=O)c1`, the “hERG current change (%, negative = inhibition) at 1uM” value is given as 11.6%. In the case of `COc1ccccc1-c1nnc(SCC(=O)NC2CCCCC2)o1` it was -6.28%. The same measure for `CC(=O)c1c(C)[nH]c(C(=O)OCc2c(F)cccc2Cl)c1C`: 7.25%; for `CCCCC1=C([O-])C2N=CC=CC2=[N+](c2ccccn2)C1=O` (centres unmarked): 6.35%. Regarding `O=[N+]([O-])c1cc(Cl)ccc1Oc1ccc(-c2nnco2)cc1`, the “hERG current change (%, negative = inhibition) at 1uM” value amounted to 17.4%.

As to `COc1ccc(-c2nn(-c3ccccc3)cc2C(=O)N(C)CC(=O)Nc2ccc(N3CCOCC3)cc2)cc1`, the “hERG current change (%, negative = inhibition) at 1uM” value worked out at 10.3%. Regarding `CCSc1nnc(NC(=O)CSc2nnc(CNC(=O)c3ccccc3F)o2)s1`, the “hERG current change (%, negative = inhibition) at 1uM” value was determined as 6.65%.

For the compound `N#Cc1ccc(Sc2ccccn2)c([N+](=O)[O-])c1`, the “hERG current change (%, negative = inhibition) at 1uM” value is given as -5.24%.

`CCOC(=O)C(Cc1ccc(O)cc1)NC(=O)CCc1c[nH]c2ccccc12` (centres unmarked): the “hERG current change (%, negative = inhibition) at 1uM” value turned out to be 12.9%. The same measure for `O=C(NCc1ccccc1)C(c1cccs1)N(Cc1cccs1)C(=O)c1cnccn1` (centres unmarked): 4.6%; for `C=CCc1cccc(CNc2nc3ccccc3n2CC)c1O`: 9.56%. On to `CCN1C2=NCCCN2c2ccccc21.Cl`, for which the “hERG current change (%, negative = inhibition) at 1uM” value is reported as 2.9%.

With `COc1ccc(-c2csc(NC(=O)CN3C(=O)NC4(CCCC4)C3=O)n2)cc1OC`, the “hERG current change (%, negative = inhibition) at 1uM” value is 22.1%. In the case of `COCCn1cnnc1SCC(=O)Nc1cccc(S(=O)(=O)N2CCCCC2)c1` it was 1.55%.

`Cc1cc(C(F)(F)F)nn1CC(=O)NCc1ccccc1`: the “hERG current change (%, negative = inhibition) at 1uM” value is -2.12%. The same measure for `CN(C)S(=O)(=O)c1cccc(COc2ccccc2C(=O)Nc2ccccc2)c1`: 1.14%; for `CCCCOc1ccc(NC(=O)CSCC(=O)OCC)cc1`: 18.1%; for `CCOC(=O)C1CCN(S(=O)(=O)c2ccccc2)CC1`: 10.6%.

In the case of `Cc1ccc(C(=O)Nc2sc3c(c2C(=O)NCc2ccco2)CCCC3)cc1`, the “hERG current change (%, negative = inhibition) at 1uM” value is 13.2%. On to `N/N=C(\c1ccccc1)c1cc(Br)ccc1N`, for which the “hERG current change (%, negative = inhibition) at 1uM” value is on record as 10.5%. In the case of `C1CCN=C(NC23CC4CC(CC(C4)C2)C3)CC1` it was 10.1%.

Turning to `CCOC(=O)/C=C/[C@H]1CC(c2ccccc2)(c2ccccc2)CO1`, the “hERG current change (%, negative = inhibition) at 1uM” value is 12.5%. On to `O=C(CSc1nnc(C2CC2)n1C1CC1)Nc1cccc(Br)c1`, for which the “hERG current change (%, negative = inhibition) at 1uM” value is given as -36.4%.

As to `O=C1c2ccccc2C(=O)N1c1ccc(S(=O)(=O)N2CCN(c3ccccc3)CC2)cc1`, the “hERG current change (%, negative = inhibition) at 1uM” value worked out at 2.89%.

Regarding `CN(/N=C/c1ccco1)C1=NS(=O)(=O)c2ccccc21`, the “hERG current change (%, negative = inhibition) at 1uM” value is given as 11%. On to `CCOc1ccc(N2C(=O)CC(NC3CCCCNC3=O)C2=O)cc1` (centres unmarked), for which the “hERG current change (%, negative = inhibition) at 1uM” value stood at 13.2%. Regarding `CC(=O)Nc1ccc(S(=O)(=O)N2CCN(c3ncccn3)CC2)cc1`, the “hERG current change (%, negative = inhibition) at 1uM” value amounted to 14.2%.

Turning to `CCOC(=O)c1ccc2nc(C)c(C)nc2c1`, the “hERG current change (%, negative = inhibition) at 1uM” value is 3.64%. The same measure for `COc1ccc(NC(=O)CO/N=C(\C)c2cccs2)cc1`: 15%.
